Values joined by “and” are separate entries in the source; they are usually repeats but may differ in a detail not shown here. Equal values may be shown once. About 75 (0.02%) of roughly 420,000 compounds were called active. The shares of active, inactive and inconclusive entries below differ from those in the screen. Calls come from the whole dose curve; as a rule, active = well fitted activation curve with a large enough effect; inconclusive = small, poorly fitted or top-dose-only effect; inactive = no such curve, though single readings can be large or run the other way. Where the call is inconclusive, the potency comes from a doubtful curve fit.
Test: qHTS for Inducers of the Endoplasmic Reticulum Stress Response (ERSR) in Human Glioma: qHTS; note: nearly all actives have a fitted effect of over 35% in size; for activation: % of control where 0% means no effect
Settings: U87-MG GRP78 promoter luciferase reporter, 16 h; activation: active compounds read high
Method in brief: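 Stably transfected U87-MG human glioma cells carrying a GRP78-based luminescent sensor were seeded at 1000 cells/well, pin-dosed with compounds and incubated 16 h. Luciferase reagent was then added, and end-point luminescence was read after 10 min at room temperature.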
Potency is the fitted concentration of half-maximal effect; tags give direction and shape of the fitted curve.

Potency, inconclusive:
CC(C)=NOc1nc(NC(=O)NS(=O)(=O)c2ccccc2Cl)nc(N(C)C)n1 50.1 µM [activator, single point]
Cc1ccc(Cc2cnc(N3C(=N)SC(C)C3=O)s2)cc1 (centres undefined) 50.1 µM [activator, single point]
CC(C)=CCc1c2c(c3occ(-c4ccc(O)cc4)c(=O)c3c1O)C=CC(C)(C)O2 28.2 µM [activator, single point]
CCCOc1ccc(C(=O)NNC(=S)NC(=O)c2ccccc2)cc1 31.6 µM [activator, partial curve, poor fit]
CSc1ccc(/C=C(\C#N)C(=O)NC2CCCCC2C)cc1 (centres undefined) 50.1 µM [activator, partial curve, poor fit]
CC1(c2ccc(OC(F)F)cc2)NC(=O)N(CC(=O)Nc2ccccc2)C1=O (centres undefined) 50.1 µM [activator, single point]
Fc1ccc(-c2ccc(CNCCSc3nnnn3-c3ccccc3)o2)cc1 50.1 µM [activator, single point]
O=C(Nc1cc(C(F)(F)F)ccc1-n1cncn1)c1ccc([N+](=O)[O-])o1 20 µM [activator, single point]
Cc1cc2c(cc1S(=O)(=O)N1CCN(c3cccc(C)c3C)CC1)OCC(=O)N2 28.2 µM [activator, single point]
N/C(=N\OC(=O)c1cccc2ccccc12)c1cccnc1 5.62 µM [activator, full curve, poor fit]
O=C1c2ccccc2C(=O)N1CCSc1ccccc1 2 µM [activator, full curve, poor fit]
CC(O)(c1cccc(F)c1)c1nc(-c2ccoc2)cs1 (centres undefined) 50.1 µM [activator, single point]
COc1cccc(/C=C/C(=O)c2ccc3c(c2)OCO3)c1OC 44.7 µM [activator, partial curve, poor fit]
Cc1nc(C(C)NC2CCN(c3cccc(NC(=O)c4ccncc4)c3)CC2)cs1 (centres undefined) 0.316 µM [activator, full curve, poor fit]
O=C(NC(c1ccc(F)cc1)c1ccc2ccccc2n1)C1CCN(Cc2cccc(C(F)(F)F)c2)CC1 (centres undefined) 2.24 µM [activator, partial curve, poor fit]
COc1ccccc1C/C(N)=N/OC(=O)c1ccc2c(c1)OCO2 17.8 µM [activator, single point]
COC(=O)c1ccccc1-c1cc(C)cc2c1OC(CNC(=O)c1ccn(C)n1)C2 (centres undefined) 28.2 µM [activator, single point]
O=[N+]([O-])c1ccc2nc(-c3ccncc3)[nH]c2c1 12.6 µM [activator, single point]
COc1ccc(CCNC(=O)c2cc(-c3ccco3)on2)cc1OC 25.1 µM [activator, partial curve, poor fit]
CCCCNc1ccc(C(=O)OCCN(C)C)cc1 17.8 µM [activator, single point]
CCOC(=O)CC(=O)CSc1nc2c(sc(=S)n2-c2ccc(C)c(C)c2)c(=O)[nH]1 44.7 µM [activator, partial curve, poor fit]
Cc1cc(SCC(=O)N/N=C/c2ccc(O)c(O)c2)nc2ccccc12 17.8 µM [activator, partial curve, poor fit]
c1cncc(CNc2ncnc3ccc(-c4ccoc4)cc23)c1 50.1 µM [activator, single point]
Cc1ccc(F)c([C@H]2C3C=CCC(c4ccccc4)C3C(=O)N2Cc2ccccc2)c1 (some centres undefined) 50.1 µM [activator, single point]
O=C(Nc1cc(S(=O)(=O)N2CCOCC2)ccc1N1CCCCC1)c1cc(-c2ccccn2)nc2ccccc12 31.6 µM [activator, single point]
O=C(Nc1ccc(N2CCOCC2)c(Cl)c1)c1cc(F)c(F)cc1Cl 44.7 µM [activator, partial curve, poor fit]
O=c1c2ccccc2nc(SCc2cn3ccsc3n2)n1-c1ccc(F)cc1 22.4 µM [activator, partial curve, poor fit]
CC/C(C)=N/Nc1nc2sc3c(c2c(=O)[nH]1)CC(C)(C)OC3 44.7 µM [activator, partial curve, poor fit]
COc1ccc(-c2nnc(Sc3nc4ccccc4o3)c3ccccc23)cc1 15.8 µM [activator, single point]
Cc1ccc(C(=O)NC(=C(Cl)Cl)S(=O)(=O)c2ccccc2)cc1 14.1 µM [activator, single point]
Cn1c2ccccc2c2cc(/C=N/NC(=O)c3ccccc3F)ccc21 25.1 µM [activator, single point]
CCc1ccc(C(=O)CC2(O)C(=O)N(CCc3ccccc3)c3ccc(Br)cc32)cc1 (centres undefined) 35.5 µM [activator, partial curve, poor fit]
CCCNC(=O)COc1coc(CN2CCN(c3ccc(F)cc3)CC2)cc1=O 14.1 µM [activator, single point]
CC(C)(C)c1cc(C2COC(=O)COCCOCC(=O)OCCOCCO2)cc(C(C)(C)C)c1O (centres undefined) 28.2 µM [activator, partial curve, poor fit]
Cc1cccc(N2CCN(C(=O)CCS(=O)(=O)c3ccc4c(c3)NC(=O)C(C)S4)CC2)c1C (centres undefined) 10 µM [activator, single point]
Nc1ccc(NC(=O)c2cccc(C(=O)Nc3ccc(N)cc3Cl)c2)c(Cl)c1 44.7 µM [activator, partial curve, poor fit]
S=C1Cc2ccccc2N1 14.1 µM [activator, single point]
CCOc1ccc(NS(=O)(=O)c2ccc(C(=O)N3CC(C)OC(C)C3)cc2)cc1 (centres undefined) 50.1 µM [activator, single point]
CC(C)(Sc1ccc(CCN(CCCCC2CCCCC2)C(=O)NC2CCCCC2)cc1)C(=O)O 58.5 µM [activator, partial curve, poor fit]
CCOC(=O)CSC1=C(C#N)C(c2ccc(C)cc2)C2=C(CCCC2=O)N1 (centres undefined) 44.7 µM [activator, single point]
CCC1CCc2c(sc(NC(=O)c3ccoc3C)c2C(N)=O)C1 (centres undefined) 44.7 µM [activator, partial curve, poor fit]
COCCn1cnc2c1c(=O)n(CC(=O)NCC(F)(F)F)c(=O)n2Cc1ccccc1 50.1 µM [activator, single point]
CCOC(=O)C(N)CSC1CC(=O)N(c2ccc(C(=O)OC)cc2)C1=O (centres undefined) 44.7 µM [activator, partial curve, poor fit]

activation, inactive:
COC(=O)CCC(NC(=O)OCc1ccccc1)C(=O)NC(CC(C)C)C(=O)OC (centres undefined) -2.03%
CCCSc1nnc2c(n1)OC(c1ccc(Br)s1)Nc1ccccc1-2 (centres undefined) -0.615%
C=CCn1c(SCC(=O)Nc2ccccc2)nnc1-c1cccc(S(=O)(=O)N2CCOCC2)c1 2.49%
Nc1c(Br)cc(C=O)cc1Br -3.55%
C=CCNC(=S)Nc1ccc(N(C)C)cc1 2.38%
CCOc1ccc(C2CC(=O)NC(NC(=O)c3ccc(C)cc3)=N2)cc1 (centres undefined) 2.58%
Cc1nc(NS(=O)(=O)c2ccccc2)sc1NC(=O)OC(C)C -3.44%
Cc1cccc(-c2nnc(NC(=O)c3ccc(Cl)cc3)o2)c1 -4.34%
CCNC(=O)Nc1ccc2c(c1)c(=O)n(C)n2Cc1ccc(Cl)cc1 1.23%
CC(C)(C)/C(O)=C/c1nc2ccccc2[nH]c1=O -2.87%
Cc1ccc(-c2nn(-c3ccccc3)cc2/C=C/C(=O)Nc2nccs2)cc1 -1.93%
Cc1ccc(C(=O)Nc2nnc(S(=O)(=O)N3CCCCCC3)s2)cc1 -2.5% and -5.82%
COc1cc(NS(=O)(=O)c2cccc3nsnc23)cc(OC)c1 0.732%
COc1ccc(-n2c(NC(=O)c3ccco3)c(C#N)c3nc4ccccc4nc32)cc1 -5.68%
N#CC1C(=O)c2ccccc2C1c1ccccc1 (centres undefined) -14%
Cc1ccc(-c2nc(NCc3ccco3)c3ccccc3n2)cc1 2.8%
Cc1ncc2c(c1CNC(=O)c1ccc3c(c1)OCO3)CCN(C(=O)c1cccc(-n3cccn3)c1)C2 -3.66%
c1csc(Cc2nn3c(-c4ccncc4)nnc3s2)c1 -4.03%
CC(/C=C/c1ccco1)=N\NC(=O)CNc1ccc2ccccc2c1 1.94%
Cc1cccc(NC2=Nc3ccccc3N3C2=Nc2c(c(C)nn2-c2ccccc2)C3c2ccc(O)c(O)c2)c1 (centres undefined) -16.5%
COc1cc(-c2nc(SCC(=O)Nc3ccc(C)cc3)c(-c3ccc(F)cc3)[nH]2)cc(OC)c1OC -2.07%

— PubChem BioAssay AID602332 (National Center for Advancing Translational Sciences (NCATS), 2012)
